# In a collection of fitness landscapes (doi:10.1038/s41467-024-54723-y):
# Whole data set: some 18,000 sequences, median “TetR repression strength (sort-seq, GFP reporter)” near 0.23, cut for the highest 2% near 0.68. This is one part of the list.
# Molecular target: TetR (class B, Tn10) (UniProt P04483)
# Test: TetR repression strength (sort-seq, GFP reporter) (relative to tetO2 = 1); higher = stronger repression
# Settings: E. coli
# Outline: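 In LB with 50 µg/mL chloramphenicol, E. coli SIG10-MAX holding a low-copy library with eight randomized operator positions between a constitutive promoter and sfGFP, plus constitutive TetR, grew for 5 h at 37 °C. FACS then sorted 10^6 cells into 13 fluorescence bins for Illumina sequencing of each bin. Repression strength equals the top bin index plus one less the read-weighted mean bin, normalized to the unaltered operator. Values from three independent transformations were averaged when reads were ≥30 in every replicate and the CV was ≤0.5.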
# UniProt P04483, sequence (P04483 whole entry): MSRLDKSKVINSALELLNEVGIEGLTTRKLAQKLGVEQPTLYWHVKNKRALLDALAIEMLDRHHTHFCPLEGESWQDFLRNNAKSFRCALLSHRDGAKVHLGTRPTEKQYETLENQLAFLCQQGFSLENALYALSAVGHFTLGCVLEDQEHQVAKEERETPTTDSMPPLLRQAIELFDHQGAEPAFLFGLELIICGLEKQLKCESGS
row,Sequence,TetR repression strength
1,TCCCTGGGAGTCCACGAGA,0.371
2,TCCCAGATAGTTCAAGAGA,0.169
3,TCCCTCGGAGTTGTGGAGA,0.2
4,TCCCATCGAGTCGAAGAGA,0.631
5,TCCCGATGAGTGCGTGAGA,0.241
6,TCCCGTCTAGTGGCAGAGA,0.296
7,TCCCCTTCAGTCATGGAGA,0.135
8,TCCCGTGAAGTGCTCGAGA,0.264
9,TCCCCGTCAGTTAGCGAGA,0.185
10,TCCCCACAAGTCCTCGAGA,0.562
11,TCCCCAACAGTGTCTGAGA,0.215
12,TCCCCCCGAGTCCACGAGA,0.403
13,TCCCCCATAGTTGAAGAGA,0.426
14,TCCCACTGAGTGACGGAGA,0.23
15,TCCCTGCGAGTATGTGAGA,0.228
16,TCCCTCACAGTGTGGGAGA,1.22
17,TCCCTGCGAGTCGCTGAGA,0.141
18,TCCCCGTTAGTTTGAGAGA,0.219
19,TCCCGGTTAGTATGAGAGA,0.179
20,TCCCGTGCAGTGTTCGAGA,0.213
21,TCCCTTTAAGTAATTGAGA,0.521
22,TCCCTCATAGTGAAAGAGA,0.138
23,TCCCGACGAGTCCGTGAGA,0.433
24,TCCCGTAAAGTCAAGGAGA,0.506
25,TCCCTGTGAGTCGTTGAGA,0.443
26,TCCCAGGTAGTTAAGGAGA,0.191

row,Sequence,TetR repression strength
1,TCCCTATCAGTACCAGAGA,0.514
2,TCCCGTGCAGTGCTAGAGA,0.38
3,TCCCTTTAAGTGTTAGAGA,0.415
4,TCCCGCGCAGTACATGAGA,0.0389
5,TCCCGGACAGTTATAGAGA,0.134
6,TCCCATCAAGTGTCAGAGA,0.233
7,TCCCATTGAGTCATTGAGA,0.271
8,TCCCCTCGAGTCATGGAGA,0.279
9,TCCCACAGAGTGGTAGAGA,0.438
10,TCCCAACCAGTAGGAGAGA,0.0629
11,TCCCTTCCAGTCATTGAGA,0.225
12,TCCCGTTTAGTCGGGGAGA,0.228
13,TCCCTAAGAGTACTGGAGA,0.401
14,TCCCGTAGAGTCTTTGAGA,0.229
15,TCCCAAGAAGTCGATGAGA,0
16,TCCCCTCCAGTTCTGGAGA,0.342
17,TCCCCTTCAGTTTCCGAGA,0.367
18,TCCCGCGTAGTTTAGGAGA,0.195
19,TCCCTGTAAGTGCGGGAGA,0.17
20,TCCCATTTAGTACGGGAGA,0.296
21,TCCCAGAGAGTCCTCGAGA,0.278
22,TCCCAAAGAGTGGGAGAGA,0.23
23,TCCCTGAGAGTGGAAGAGA,0.109
24,TCCCGGCGAGTATCCGAGA,0.239
25,TCCCAGGTAGTGCATGAGA,0.214
26,TCCCCACAAGTGATAGAGA,0.652

row,Sequence,TetR repression strength
1,TCCCGTGTAGTGTCGGAGA,0.26
2,TCCCGACAAGTTCGGGAGA,0.0995
3,TCCCTGCAAGTATGAGAGA,0.013
4,TCCCGCCTAGTAGCAGAGA,0.253
5,TCCCCAAGAGTCCTCGAGA,0.409
6,TCCCCGTGAGTTGCCGAGA,0.221
7,TCCCGCGCAGTGGGGGAGA,0.21
8,TCCCCGCCAGTAGGCGAGA,0.457
9,TCCCGTACAGTAGGTGAGA,0.131
10,TCCCTGAAAGTCTACGAGA,0.815
11,TCCCCTCCAGTTGCAGAGA,0.137
12,TCCCGACCAGTGTTTGAGA,0.066
13,TCCCCGGAAGTTTGTGAGA,0.173
14,TCCCACAGAGTGTCGGAGA,0.0864
15,TCCCACCGAGTATTCGAGA,0.117
16,TCCCTTAGAGTGAGGGAGA,0.0732
17,TCCCAGTCAGTGGCGGAGA,0.205
18,TCCCGGGCAGTCATAGAGA,0.281
19,TCCCATGGAGTGCTAGAGA,0.268
20,TCCCGGCTAGTGGTCGAGA,0.152
21,TCCCCGGAAGTGATAGAGA,0.33
22,TCCCTACGAGTGGGTGAGA,0.289
23,TCCCTTGGAGTGTAGGAGA,0.242
24,TCCCGTCTAGTAGGGGAGA,0.159
25,TCCCGAAGAGTTGCAGAGA,0.295
26,TCCCGAGGAGTAGGTGAGA,0.309

row,Sequence,TetR repression strength
1,TCCCAGCCAGTCAAGGAGA,0.404
2,TCCCAGGGAGTTGCCGAGA,0.137
3,TCCCATGGAGTCGTGGAGA,0.155
4,TCCCATAGAGTCAATGAGA,0.255
5,TCCCTATGAGTACAAGAGA,0.376
6,TCCCGTTAAGTGTACGAGA,0.311
7,TCCCGCCGAGTCGTCGAGA,1.24
8,TCCCTCGTAGTGCTAGAGA,0.275
9,TCCCGACGAGTACGTGAGA,0.209
10,TCCCGTCCAGTGTTAGAGA,0.42
11,TCCCGACAAGTCACAGAGA,0.292
12,TCCCCTAAAGTGAGTGAGA,0.502
13,TCCCGGAAAGTGACAGAGA,0.223
14,TCCCTATGAGTTATGGAGA,0.505
15,TCCCATGTAGTAGGAGAGA,0.0472
16,TCCCGTGTAGTTTGCGAGA,0.234
17,TCCCCAGGAGTCTCCGAGA,0.155
18,TCCCCGCCAGTGTATGAGA,0.211
19,TCCCAGCGAGTCGGCGAGA,0.385
20,TCCCGAGTAGTTTAGGAGA,0.264
21,TCCCCCCGAGTCGGGGAGA,0.591
22,TCCCGTGTAGTCTCTGAGA,0.03
23,TCCCCGAAAGTACGGGAGA,0.181
24,TCCCCCTCAGTGGTTGAGA,0.152
25,TCCCTGAGAGTTTATGAGA,0.587
26,TCCCGTACAGTTCGGGAGA,0.15

row,Sequence,TetR repression strength
1,TCCCTGGCAGTAACTGAGA,0.231
2,TCCCCTTGAGTCACGGAGA,0.362
3,TCCCTGGGAGTACATGAGA,0.12
4,TCCCTGGTAGTAGAGGAGA,0.0794
5,TCCCGTCAAGTTACGGAGA,0.529
6,TCCCGCAAAGTGGACGAGA,0.236
7,TCCCAACTAGTGGGGGAGA,0.212
8,TCCCCCACAGTAAAGGAGA,0.164
9,TCCCGGATAGTGTTAGAGA,0.275
10,TCCCAATGAGTATCTGAGA,0.442
11,TCCCTTCTAGTTCGTGAGA,0.415
12,TCCCAGCAAGTGGGTGAGA,0.699
13,TCCCACTCAGTGCCAGAGA,0.287
14,TCCCGGGTAGTATGAGAGA,0.516
15,TCCCTATTAGTTACGGAGA,0.239
16,TCCCGATGAGTTGGTGAGA,0.359
17,TCCCCAGGAGTTCGAGAGA,0.271
18,TCCCCTAAAGTACGGGAGA,0.269
19,TCCCGTGGAGTGGGCGAGA,0.141
20,TCCCGAATAGTACGCGAGA,0.153
21,TCCCCGTCAGTTTTCGAGA,0.258
22,TCCCATACAGTGTCAGAGA,0.315
23,TCCCTAAGAGTTGCTGAGA,0.261
24,TCCCGGTAAGTGGCCGAGA,0.21
25,TCCCAGCGAGTTTAAGAGA,0.014
26,TCCCTCAGAGTGCCTGAGA,0.211

row,Sequence,TetR repression strength
1,TCCCCTCGAGTGCCGGAGA,0.442
2,TCCCGTGTAGTGGTGGAGA,0.185
3,TCCCGTTTAGTCGCGGAGA,0.215
4,TCCCCGCGAGTTGCGGAGA,0.247
5,TCCCTCTAAGTTGTCGAGA,0.486
6,TCCCGCGGAGTCGTCGAGA,0.179
7,TCCCGGTAAGTGGTGGAGA,0.269
8,TCCCGGTCAGTTGCTGAGA,0.384
9,TCCCGAGTAGTAGTAGAGA,0.03
10,TCCCGTAGAGTGAAGGAGA,0.238
11,TCCCACGGAGTGAGAGAGA,0.435
12,TCCCTCCGAGTGCTCGAGA,0.311
13,TCCCCACGAGTAGTGGAGA,0.217
14,TCCCGGAGAGTTACGGAGA,0.294
15,TCCCTTGGAGTCGGGGAGA,0.319
16,TCCCTGCAAGTTTATGAGA,0.256
17,TCCCTTCAAGTATTTGAGA,0.373
18,TCCCATTAAGTAGTAGAGA,0.223
19,TCCCTATCAGTGAGTGAGA,0.79
20,TCCCGGCTAGTACACGAGA,0.262
21,TCCCCATGAGTGATTGAGA,0.517
22,TCCCCGCTAGTGGCAGAGA,0.282
23,TCCCAAGGAGTGGGCGAGA,0.231
24,TCCCGGTTAGTCTCAGAGA,0.29
25,TCCCGGTCAGTTCTTGAGA,0.44
26,TCCCGATGAGTTGCCGAGA,0.284

row,Sequence,TetR repression strength
1,TCCCGTGGAGTGGGGGAGA,0.253
2,TCCCGGACAGTGACTGAGA,0.216
3,TCCCGTCAAGTTAGGGAGA,0.195
4,TCCCGGTTAGTCTTCGAGA,0.18
5,TCCCTGACAGTTTCGGAGA,0.226
6,TCCCAAGTAGTGAACGAGA,0.112
7,TCCCTGTGAGTCTATGAGA,0
8,TCCCGGGGAGTTGACGAGA,0.153
9,TCCCTTGAAGTCAATGAGA,0.369
10,TCCCTATGAGTTCCAGAGA,1.01
11,TCCCCCCAAGTGTAGGAGA,0.207
12,TCCCAAACAGTTTGTGAGA,0.0981
13,TCCCGCGCAGTAGGGGAGA,0.233
14,TCCCATTTAGTCTCCGAGA,0.505
15,TCCCGGAAAGTCGTAGAGA,0.0816
16,TCCCCACCAGTGTCAGAGA,0.334
17,TCCCGGGTAGTAGAGGAGA,0.097
18,TCCCCGGTAGTATGCGAGA,0.5
19,TCCCTGTCAGTGCATGAGA,0.361
20,TCCCTGACAGTGTCAGAGA,0.263
21,TCCCGTGGAGTAGGGGAGA,0.191
22,TCCCTGTCAGTCGCCGAGA,0.379
23,TCCCTTAGAGTCTATGAGA,0.159
24,TCCCTGGGAGTGTTGGAGA,0.288
25,TCCCGTCTAGTACTCGAGA,0.262
26,TCCCAAGGAGTTTGAGAGA,0.205

row,Sequence,TetR repression strength
1,TCCCGGCAAGTTAGAGAGA,0.43
2,TCCCTTCAAGTAATCGAGA,0.624
3,TCCCGGTAAGTCAAGGAGA,0.397
4,TCCCTAAGAGTAGGGGAGA,0.141
5,TCCCTAAGAGTGGTGGAGA,0.129
6,TCCCGCTGAGTTATGGAGA,0.241
7,TCCCGGTCAGTGCGCGAGA,0.364
8,TCCCATGAAGTGGTGGAGA,0.0823
9,TCCCTCGCAGTTTGTGAGA,0.291
10,TCCCGGCAAGTGCCAGAGA,0.242
11,TCCCCACGAGTTGGCGAGA,0.105
12,TCCCTGGGAGTGGTCGAGA,0.303
13,TCCCATATAGTTCGTGAGA,0.113
14,TCCCAGTGAGTATAAGAGA,0.0512
15,TCCCCGCTAGTTAAGGAGA,0.755
16,TCCCTGGGAGTTTAAGAGA,0.173
17,TCCCGAACAGTGTTAGAGA,0.522
18,TCCCGGCAAGTTGGTGAGA,0.189
19,TCCCATCCAGTCAGTGAGA,0.188
20,TCCCGTAAAGTCGAGGAGA,0.0148
21,TCCCACCGAGTGATCGAGA,0.405
22,TCCCAGACAGTATCGGAGA,0.307
